More than one record can exist for a structure, and the calls need not agree. The source made the active and inactive calls. Unless noted, the call rests on the fitted dose curve; in most records, active means well fitted curve in the direction sought with a large enough effect in the repeat runs; inconclusive means weak or mixed curves; inactive means no such curve, though single readings can be large; an effect the other way counts as inactive or inconclusive.
How the values were obtained:
[1] = qHTS assay for identifying genotoxic compounds that show differential cytotoxicity against isogenic chicken DT40 cell lines with known DNA damage response pathways - Rev3 mutant cell line (AID 743014); conditions: chicken DT40 Rev3-/- viability, CellTiter-Glo, 40 h; activity, negative = cytotoxicity: at 68.4 µM (top of the series) unless noted; further: nearly all actives have a fitted effect of over 55% in size; further: potency means the concentration at half of the fitted maximal effect; on activity, negative = cytotoxicity: on the % scale 0 is the no-effect control and ±100 the full control effect
[2] = target: Estrogen receptor (Homo sapiens) (UniProt P03372); experiment: qHTS assay to identify small molecule antagonists of the estrogen receptor alpha (ER-alpha) signaling pathway (AID 743069; active means well fitted curve in the direction sought with a large enough effect in the signal ratio in the repeat runs, not every such curve was filed as active; inconclusive means weak or mixed curves, or effect the other way; inactive means no such curve, though single readings can be large or run the other way; the % refers to the signal ratio; further: potency means the concentration at half of the fitted maximal effect; on activity, negative = inhibition: on the % scale 0 is the no-effect control and ±100 the full control effect); conditions: HEK293 ER-alpha-UAS-bla, beta-lactamase ratio, antagonist mode; activity, negative = inhibition: at 69.4 µM (top of the series) unless noted
How it was run: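 ER-alpha-UAS-bla GripTite HEK293 line; 2% charcoal-stripped FBS overnight; plated, 4 hr 37C/5% CO2; cpd in DMSO + 17beta-estradiol, 18 hr 37C; LiveBLAzer B/G FRET substrate 2 hr RT; fluorescence intensity.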

[3] = qHTS assay to identify small molecule antagonists of the estrogen receptor alpha (ER-alpha) signaling pathway using the BG1 cell line (AID 743080; calls by dose curve;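 further: BG1 cells stimulated with 17beta-estradiol alongside compound; nearly all actives have a fitted effect of over 25% in size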; further: potency means the concentration at half of the fitted maximal effect; on activity change, negative = inhibition: on the % scale 0 is the no-effect control and ±100 the full control effect); conditions: BG1Luc4E2 ERE-luciferase antagonist mode, luminescence; activity change, negative = inhibition: at 70.3 µM (top of the series) unless noted
How it was run: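 BG1Luc4E2, endogenous ER-alpha, 4xERE-luc; 5 d charcoal-stripped FBS, phenol red free; 24 h plating; cpd + 17beta-estradiol 21.5 h, 37 C/5% CO2; CellTiter-Fluor viability 30 min, then ONE-Glo luciferase 30 min RT.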

[4] = target: Estrogen receptor (Homo sapiens) (UniProt P03372); experiment: qHTS assay to identify small molecule agonists of the estrogen receptor alpha (ER-alpha) signaling pathway using the BG1 cell line (AID 743079); conditions: BG1Luc4E2 cells, ERE-luciferase agonist, 22 h; activation: at 70.3 µM (top of the series) unless noted; further: potency means the concentration at half of the fitted maximal effect; nearly all actives have a fitted effect of over 20% in size
[5] = qHTS assay to identify aromatase inhibitors - cell viability counter screen (AID 743084); conditions: MCF-7 aro ERE viability, CellTiter-Fluor, 24 h; activity change, negative = cytotoxicity: at 70.3 µM (top of the series);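 further: cells stimulated with testosterone during compound exposure; on the % scale 0 is the no-effect control and ±100 the full control effect; nearly all actives have a fitted effect of over 55% in size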
[6] = qHTS assay for identifying genotoxic compounds that show differential cytotoxicity against isogenic chicken DT40 cell lines with known DNA damage response pathways - Rad54/Ku70 mutant cell line (AID 743015); conditions: DT40 Rad54/Ku70 mutant viability, CellTiter-Glo, 40 h; activity change, negative = cytotoxicity: at 66.8 µM (top of the series); further: nearly all actives have a fitted effect of over 60% in size; further: potency means the concentration at half of the fitted maximal effect
[7] = qHTS assay to identify small molecule antagonists of the thyroid receptor (TR) signaling pathway - cell viability counter screen (AID 743064); conditions: GH3.TRE-Luc viability, CellTiter-Fluor, 24 h; activity change, negative = cytotoxic: at 70.3 µM (top of the series) unless noted; further: nearly all actives have a fitted effect of over 50% in size; further: potency means the concentration at half of the fitted maximal effect
How it was run: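 Viability of T3-stimulated (1 nM final) GH3.TRE-Luc cells is measured by CellTiter-Fluor fluorescence after 23.5 h compound exposure at 37 °C plus 30 min reagent incubation.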

[8] = qHTS assay to identify small molecule antagonists of the thyroid receptor (TR) signaling pathway (AID 743065); further: potency means the concentration at half of the fitted maximal effect; nearly all actives have a fitted effect of over 55% in size
How it was run: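 Antagonism measured as loss of luciferase signal in GH3 cells stably carrying a TRE-luciferase reporter, co-treated with compound and T3 (1 nM final) for 23.5 h at 37 C. Viability was read in the same well by CellTiter-Fluor.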

[9] = qHTS assay to identify small molecule antagonists of the estrogen receptor alpha (ER-alpha) signaling pathway - cell viability counter screen (AID 743074; calls by dose curve;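 further: HEK293 cells carrying ER-alpha-UAS-bla reporter stimulated with 17beta-estradiol; nearly all actives have a fitted effect of over 45% in size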; further: potency means the concentration at half of the fitted maximal effect)
[10] = tested on: thyroid hormone receptor (rat, GH3 cells); experiment: qHTS assay to identify small molecule agonists of the thyroid receptor (TR) signaling pathway (AID 743066; calls by dose curve; further: on the % scale 0 is the no-effect control and ±100 the full control effect); conditions: GH3.TRE-Luc cells, TR agonist luciferase, 24 h; activation: at 83.9 µM (top of the series) unless noted
[11] = qHTS assay to identify small molecule antagonists of the androgen receptor (AR) signaling pathway - cell viability counter screen (AID 743033; further: potency means the concentration at half of the fitted maximal effect; nearly all actives have a fitted effect of over 45% in size); conditions: AR-bla HEK293 viability, CellTiter-Glo luminescence, 16 h; activity change, negative = cytotoxicity: at 58.5 µM (top of the series)
[12] = qHTS assay to identify small molecule antagonists of the estrogen receptor alpha (ER-alpha) signaling pathway using the BG1 cell line - cell viability counter screen (AID 743081);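 further: compound given together with 17beta-estradiol as the ER stimulus; nearly all actives have a fitted effect of over 45% in size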; further: potency means the concentration at half of the fitted maximal effect
[13] = target: Estrogen receptor (Homo sapiens) (UniProt P03372); experiment: qHTS assay to identify small molecule agonists of the estrogen receptor alpha (ER-alpha) signaling pathway (AID 743075; calls by dose curve;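 further: HEK293 GripTite cells with ER-alpha and UAS-driven beta-lactamase reporter; potency means the concentration at half of the fitted maximal effect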)
[14] = target: Androgen receptor (Homo sapiens) (UniProt P10275); experiment: qHTS assay to identify small molecule antagonists of the androgen receptor (AR) signaling pathway (AID 743035; active means well fitted inhibition curve with a large enough effect in the signal ratio in the repeat runs, not every such curve was filed as active; inconclusive means weak or mixed curves, or effect the other way; inactive means no such curve, though single readings can be large or run the other way; the % refers to the signal ratio; further: potency means the concentration at half of the fitted maximal effect); conditions: HEK293 AR-UAS-bla, R1881-stimulated, beta-lactamase FRET, 16 h; activity change, negative = inhibition: at 58.5 µM (top of the series) unless noted
How it was run: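 Fluorescence from a beta-lactamase FRET substrate (LiveBLAzer B/G, 2 h, room temperature) measured inhibition of R1881-stimulated signaling in GeneBLAzer AR-UAS-bla HEK293 cells exposed to compound for 16 h at 37C.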

[15] = target: Androgen receptor (Homo sapiens) (UniProt P10275); experiment: qHTS assay to identify small molecule agonists of the androgen receptor (AR) signaling pathway (AID 743036; active means well fitted activation curve with a large enough effect in the signal ratio in the repeat runs, with a control signal flat, not every such curve was filed as active; inconclusive means weak or mixed curves, or effect the other way; inactive means no such curve, though single readings can be large or run the other way; the % refers to the signal ratio; further: potency means the concentration at half of the fitted maximal effect); conditions: HEK293 AR-UAS-bla GripTite, beta-lactamase FRET ratio, 16 h; activation: at 62.4 µM (top of the series) unless noted
How it was run: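 Screening used 2,000 AR-bla HEK293 cells per well, treated 16 h at 37C with test compounds in DMSO alongside positive and DMSO-only controls; beta-lactamase activity was then read by LiveBLAzer B/G FRET fluorescence after 2 h at room temperature.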

[16] = target: Androgen receptor (Homo sapiens) (UniProt P10275); experiment: qHTS assay to identify small molecule agonists of the androgen receptor (AR) signaling pathway using the MDA cell line (AID 743040; further: potency means the concentration at half of the fitted maximal effect; nearly all actives have a fitted effect of over 20% in size); conditions: MDA-kb2 AR-luc cells, MMTV luciferase, 16 h; activity change: at 70.3 µM (top of the series), stronger effect = higher value unless noted
How it was run: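 Cells plated, 5 h at 37C/0% CO2; compound or DMSO pinned; 16 h at 37C; ONE-Glo added; luminescence measured after 30 min at room temperature. Reporter line: MDA-kb2 with MMTV-luciferase responsive to AR and GR.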

[17] = target: Androgen receptor (Homo sapiens) (UniProt P10275); experiment: qHTS assay to identify small molecule antagonists of the androgen receptor (AR) signaling pathway using the MDA cell line (AID 743042; further: on the % scale 0 is the no-effect control and ±100 the full control effect; nearly all actives have a fitted effect of over 55% in size)
How it was run: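 Antagonist mode: compounds plus R1881 agonist added to MDA-kb2 AR-luc cells, incubated 16 h at 37C. Luciferase reporter luminescence quantified, with multiplexed CellTiter-Fluor readout for cell viability.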
Tags describe the fitted curve by direction and shape or compound fluorescence and quenching.

UniProt P10275, sequence (P10275 whole entry, looked up): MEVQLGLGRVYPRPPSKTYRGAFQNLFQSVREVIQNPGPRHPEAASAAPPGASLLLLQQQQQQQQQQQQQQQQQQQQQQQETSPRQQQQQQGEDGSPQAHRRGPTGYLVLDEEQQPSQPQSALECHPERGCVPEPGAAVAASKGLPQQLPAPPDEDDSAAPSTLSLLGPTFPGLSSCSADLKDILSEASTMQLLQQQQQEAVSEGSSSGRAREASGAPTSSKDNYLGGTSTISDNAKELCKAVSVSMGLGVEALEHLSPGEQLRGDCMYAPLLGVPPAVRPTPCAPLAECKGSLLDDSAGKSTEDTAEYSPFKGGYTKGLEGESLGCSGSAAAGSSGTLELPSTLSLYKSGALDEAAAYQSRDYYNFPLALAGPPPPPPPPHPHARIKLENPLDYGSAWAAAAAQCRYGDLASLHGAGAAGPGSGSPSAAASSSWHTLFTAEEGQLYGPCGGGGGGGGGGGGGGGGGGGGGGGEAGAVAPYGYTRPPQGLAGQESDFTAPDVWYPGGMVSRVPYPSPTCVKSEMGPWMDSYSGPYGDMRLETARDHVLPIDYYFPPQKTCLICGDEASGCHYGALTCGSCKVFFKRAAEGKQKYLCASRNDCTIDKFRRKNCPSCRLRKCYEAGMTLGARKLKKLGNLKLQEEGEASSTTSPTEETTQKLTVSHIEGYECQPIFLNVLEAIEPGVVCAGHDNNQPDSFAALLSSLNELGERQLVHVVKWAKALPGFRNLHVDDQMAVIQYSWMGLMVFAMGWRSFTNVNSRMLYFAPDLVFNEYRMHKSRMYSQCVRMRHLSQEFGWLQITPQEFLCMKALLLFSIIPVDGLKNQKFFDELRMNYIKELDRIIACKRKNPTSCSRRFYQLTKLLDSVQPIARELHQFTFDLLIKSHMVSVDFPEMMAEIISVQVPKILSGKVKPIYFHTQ
UniProt P03372, sequence (P03372 whole entry, looked up): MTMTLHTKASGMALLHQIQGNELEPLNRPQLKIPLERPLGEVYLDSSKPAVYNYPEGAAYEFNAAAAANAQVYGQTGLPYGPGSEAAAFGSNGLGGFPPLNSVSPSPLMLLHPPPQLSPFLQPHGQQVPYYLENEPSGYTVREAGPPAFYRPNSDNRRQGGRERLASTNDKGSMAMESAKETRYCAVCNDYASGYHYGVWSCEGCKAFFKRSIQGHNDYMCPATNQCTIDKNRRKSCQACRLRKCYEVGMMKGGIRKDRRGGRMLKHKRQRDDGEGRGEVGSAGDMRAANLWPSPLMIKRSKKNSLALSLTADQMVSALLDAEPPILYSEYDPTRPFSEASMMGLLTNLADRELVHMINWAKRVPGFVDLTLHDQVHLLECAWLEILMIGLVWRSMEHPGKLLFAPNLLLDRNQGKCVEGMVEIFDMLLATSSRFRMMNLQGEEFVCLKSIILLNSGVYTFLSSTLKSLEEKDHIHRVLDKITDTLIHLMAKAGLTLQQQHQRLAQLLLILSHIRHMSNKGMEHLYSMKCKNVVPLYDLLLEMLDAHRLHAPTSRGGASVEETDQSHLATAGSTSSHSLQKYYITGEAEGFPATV

SMILES: CC1CCc2nccnc21 (stereo not drawn)
- Potency [1]: inconclusive: 68.6 µM [cytotoxic, single point]
- Potency [2]: inactive
- Potency [3]: inactive

SMILES: COc1cc(/C=C/c2ccccc2)oc(=O)c1
- Potency [1]: inactive
- Potency [2]: inactive
- Potency [4]: active: 2.52 µM
- Potency [3]: inconclusive: 0.893 µM [rising, full curve]
- Potency [5]: inactive

SMILES: O=C1C(=O)c2ccccc2C(O)=C1C1CCC(c2ccc(Cl)cc2)CC1 (stereo not drawn)
- Potency [6]: inconclusive: 7.17 µM [cytotoxic, single point]
- Potency [7]: inconclusive: 8.04 µM [cytotoxic, single point]
- Potency [8]: inconclusive: 7.17 µM [inhibitor, single point]
- Potency [2]: inconclusive: 1.82 µM [rising, full curve]
- Potency [9]: active: 2.04 µM
- Potency [3]: inconclusive: 12.7 µM

SMILES: C=CCCCCCCCCCC
- Potency [6]: inactive
- Potency [7]: inactive
- Potency [10]: inactive

SMILES: COc1ccc(/C=C/C(=O)c2ccc(OC)cc2OC)cc1
- Potency [6]: active: 18.8 µM
- Potency [7]: inconclusive: 33.5 µM [cytotoxic, single point]

SMILES: CN(CCOc1ccc(CC2SC(=O)NC2=O)cc1)c1ccccn1 (stereo not drawn)
- Potency [6]: inconclusive: 33.5 µM [cytotoxic, single point]
- Potency [8]: inconclusive: 29.8 µM [inhibitor, partial curve, poor fit]
- Potency [10]: inactive
- Potency [2]: inconclusive: 3.45 µM [fluorescent, full curve]

SMILES: Cc1nc(-c2ccc(Cl)cc2)oc1COC(C)(C)C(=O)O
- Potency [6]: inactive
- Potency [7]: inactive
- Potency [10]: inactive

SMILES: O=C(c1ccccc1)C1CCC1
- Potency [6]: inactive
- Potency [7]: inactive

SMILES: CC(C)C1=CC2=CC[C@@H]3[C@](C)(CCC[C@@]3(C)C(=O)O)[C@H]2CC1
- Potency [6]: inactive
- Potency [11]: inconclusive: 0.0011 µM [cytotoxic, full curve, poor fit]
- Potency [7]: inconclusive: 68.6 µM [cytotoxic, single point]
- Potency [8]: inconclusive: 61.1 µM [inhibitor, single point]
- Potency [2]: active: 54.9 µM [inconclusive]

SMILES: O=S(=O)(O)CO
- Potency [6]: inactive
- activity change, negative = cytotoxic [7]: inconclusive: 35.6%
- Potency [12]: inactive

SMILES: C[C@]1(Cn2ccnn2)[C@H](C(=O)O)N2C(=O)C[C@H]2S1(=O)=O
- Potency [6]: inactive
- Potency [7]: inactive
- Potency [2]: active: 2.39 µM [inconclusive]
- Potency [9]: inactive
- Potency [13]: inconclusive: 2.39 µM [inhibitor, partial curve]
- Potency [12]: inconclusive: 33.5 µM [rising, partial curve, poor fit]

SMILES: CCCCCCCCCC[N+](C)(C)[O-]
- Potency [6]: inconclusive: 21.7 µM [cytotoxic, partial curve]
- Potency [14]: inactive
- activation [15]: inconclusive: 17.3%
- Potency [2]: inactive

SMILES: CC(C)NC[C@@H](O)COc1ccc(CC(N)=O)cc1
- Potency [6]: inconclusive: 29.8 µM [rising, partial curve, poor fit]
- Potency [11]: inconclusive: 0.0849 µM [rising, full curve, poor fit]
- Potency [2]: inactive
- Potency [12]: inconclusive: 33.5 µM [rising, single point]

SMILES: CC1(C)O[C@@H]2C[C@H]3[C@@H]4C[C@H](F)C5=CC(=O)C=C[C@]5(C)[C@H]4[C@@H](O)C[C@]3(C)[C@]2(C(=O)CO)O1
- Potency [6]: inactive
- Potency [11]: inconclusive: 1.62 µM [cytotoxic, partial curve, poor fit]
- Potency [2]: inconclusive: 0.0013 µM [activator, full curve]
- Potency [13]: inconclusive: 0.406 µM [activator, partial curve]
- Potency [3]: inconclusive: 0.0036 µM

SMILES: COc1ccc(C(=O)c2ccc(OC)cc2O)c(O)c1
- Potency [6]: inactive
- activity change, negative = inhibition [14]: inconclusive: -38.1% [at 78.9 µM]
- Potency [15]: inconclusive: 55.3 µM [activator, single point]
- Potency [16]: inconclusive: 6.16 µM [activator, full curve]
- Potency [7]: inconclusive: 1.95 µM [rising, full curve, poor fit]
- Potency [13]: active: 8.77 µM [fluorescent]
- Potency [4]: active: 30.9 µM
- Potency [3]: inconclusive: 6.16 µM [rising, partial curve]

SMILES: COc1cc(C(=O)OCCCN2CCCN(CCCOC(=O)c3cc(OC)c(OC)c(OC)c3)CC2)cc(OC)c1OC
- Potency [6]: active: 8.41 µM
- Potency [11]: inconclusive: 26.8 µM [cytotoxic, partial curve, poor fit]
- Potency [14]: inconclusive: 12 µM [rising, partial curve, poor fit]
- Potency [15]: inactive
- Potency [17]: inactive
- activation [10]: inconclusive: -9.91% [phenotype inactive]
- Potency [9]: inconclusive: 13.4 µM [cytotoxic, full curve, poor fit]
- Potency [4]: inconclusive: 11.9 µM [inhibitor, partial curve]
- Potency [3]: inconclusive: 21.1 µM [falling, partial curve]
- Potency [12]: active: 9.44 µM

From PubChem BioAssay (Tox21)
